{"source": "paper PMC9927451", "binders": {"B1": {"name": "MinC (P. aeruginosa), BACTH fusion (protein, UniProt Q9HYZ7 1-263)", "chain": "MSQADLLDQDPVFQLKGSMLAVTILELAHNDLARLERQLADKVAQAPNFFRDTPLVMALDKLPEGEGRLDLPALLEVCRRHGLRTLAIRAGREEDIAAAQALDLPVLPPSGARERPLDIKDSAPRKPAEEPSPSAGEARPEPAKAEEKPAEPVSRPTKVVKTPVRGGMQIYAAGGDLIVLAAVSPGAELLADGNIHVYGPMRGRALAGVKGDATARIFCQQLAAELVSIAGNYKVAEDLRRSPQWGKAVHVSLSGDVLNITRL"}, "B2": {"name": "MinD (PA3244), BACTH fusion (protein, UniProt Q9HYZ6 1-271)", "chain": "MAKILVVTSGKGGVGKTTTSAAIGTGLALRGFKTVIVDFDVGLRNLDLIMGCERRVVYDFVNVVNGEATLTQALIKDKRLENLHVLAASQTRDKDALTKEGVEKVMAELRKDFEYIICDSPAGIEKGAHLAMYFADEAIVVTNPEVSSVRDSDRMLGLLASKSQRAEKGEEPIKEHLLLTRYNPERVTKGEMLGVDDVEEILAIRLLGVIPESQAVLKASNQGVPVILDEQSDAGQAYSDAVDRLLGKEIPHRFLDVQKKGFLQRLFGGRE"}, "B3": {"name": "MinE (PA3245), BACTH fusion (protein, UniProt Q9HYZ5 1-84)", "chain": "MSLLDFFRSRKSQNSASIAKERLQIIVAHERGQRAQPDYLPQLQKDLLEVIRKYVPIDQEQIQVELENQGNCSILELNITLPDR"}}, "experiment_in_all_cases": "two-hybrid; bacterial two-hybrid (BACTH): CyaT18 and CyaT25 fusions co-expressed in E. coli BTH101 cya-; MacConkey agar with 1% maltose and 0.15 mM IPTG at 28°C; β-galactosidase activity of cultures grown overnight at 28°C", "key": {"[1]": {"molecular_target": "T1, MinC (P. aeruginosa), BACTH fusion (P. aeruginosa) (UniProt Q9HYZ7)", "T1 sequence": "B1 chain"}, "[2]": {"molecular_target": "T2, MinE (PA3245), BACTH fusion (P. aeruginosa) (UniProt Q9HYZ5)", "T2 sequence": "B3 chain"}, "[3]": {"molecular_target": "MinD (PA3244), BACTH fusion (P. aeruginosa) (UniProt Q9HYZ6)"}}, "note": "Results are given in words; binding and its absence hold for the method and conditions named. Some binding calls cover weakened binding; strength is not graded here. Where a sequence is shown, tags or fusion partners need not be part of it.", "data": [{"binder": "B1", "values": [{"measurement": "binding", "setting": "[1]", "value": "binds"}, {"measurement": "binding", "setting": "[2]", "value": "no binding"}]}, {"binder": "B2", "values": [{"measurement": "binding", "setting": "[1]", "value": "binds"}, {"measurement": "binding", "setting": "[3]", "value": "binds"}, {"measurement": "binding", "setting": "[2]", "value": "binds"}]}, {"binder": "B3", "values": [{"measurement": "binding", "setting": "[2]", "value": "binds"}]}]}
